# Test results as given in patent US20240043491A1 (Merck Sharp & Dohme, published 2024).
# T1: human IL-2Rβ, polyhistidine-tagged (human, UniProt P14784 27-239)
# T1 construct: Used as the analyte in SPR; also called IL2-RP; CD122; not shown: polyhistidine tag
# T1 sequence (looked up): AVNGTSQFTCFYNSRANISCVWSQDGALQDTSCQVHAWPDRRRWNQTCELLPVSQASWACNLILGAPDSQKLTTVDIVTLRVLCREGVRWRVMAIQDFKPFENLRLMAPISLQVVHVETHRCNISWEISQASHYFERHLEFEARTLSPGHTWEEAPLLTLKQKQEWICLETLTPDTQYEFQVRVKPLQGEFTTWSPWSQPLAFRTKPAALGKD
# T2: human IL-2Rα, polyhistidine-tagged (human, UniProt P01589 22-213, limits assumed)
# T2 construct: Used as the analyte in SPR; also called IL2-Ra; CD25; not shown: polyhistidine tag
# T2 sequence (looked up): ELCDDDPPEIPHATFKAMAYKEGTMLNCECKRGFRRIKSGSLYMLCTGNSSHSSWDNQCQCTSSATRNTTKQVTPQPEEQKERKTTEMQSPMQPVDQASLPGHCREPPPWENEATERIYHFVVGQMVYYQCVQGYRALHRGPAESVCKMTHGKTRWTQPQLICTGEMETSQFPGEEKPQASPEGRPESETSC
# Tests used:
# [1] = target: T1, human IL-2Rβ, polyhistidine-tagged; assay: SPR, Biacore T200; IL-2 Fc fusion captured on anti-human IgG Fc surface, His-tagged receptor as analyte
# Procedure: (§1) A surface plasmon resonance (SPR) assay on a Biacore T200 (Cytiva) instrument was used to determine the binding affinities of IL-2 muteins against polyhistidine-tagged IL-2 receptors. Biacore T200 Evaluation Software was used to fit each titration series to a 1:1 binding model or steady state affinity. The association rate constant (kₒₙ, M⁻¹ s⁻¹) and dissociation rate constant (koff, s⁻¹) were determined for each set of titrations and used to calculate the dissociation constant, KD=koff/kₒₙ, of each IL-2 mutein against each receptor.
# (§2) To measure the affinity of the IL-2 Fc muteins and the WT-IL-2 Fc fusion control for IL-2 receptors, the IL-2 Fc fusion was captured on an anti-human IgG Fc antibody surface followed by the IL-2 receptor as analyte. Exemplary IL-2 muteins 86BCH, 43BGO, 44BGO, 47BJO, 48BJO, 49BJO, 65BJO, 44BJP, 45BJP, 46BJP, and 47BJP are monovalent, whereas 54BGO is a bivalent version of 43BGO, 48BMP is a bivalent version of 49BJO, and 21BMT is a bivalent version of 65BJO. 86BCH contains a T to A substitution corresponding to position 3 and a C to S substitution corresponding to position 125 of wild type human IL-2 (SEQ ID NO:39) and was used as a control. The other exemplary IL-2 muteins all contain the same T to A and C to S substitutions, corresponding to positions 3 and 125 of wild type human IL-2, respectively. The positions of such substitutions are according to wild type human IL-2 amino acid sequence (SEQ ID NO:39).
# [2] = target: T2, human IL-2Rα, polyhistidine-tagged; assay: as above
# Procedure: as §1, §2
Binder,binding result [1],Kd [2]
"48BMP (bivalent) (Fc fusion, Bivalent homodimer; IL-2 T3A D20N E68S V69A Q74P C125S; also called bivalent version of 49BJO) [letters of human IgG1 Fc with L234A L235A D265S (EU numbers) omitted]GGGGSGGGGSPASSSTKKTQLQLEHLLLNLQMILNGINNYKNPKLTRMLTFKFYMPKKATELKHLQCLEEELKPLESALNLAPSKNFHLRPRDLISNINVIVLELKGSETTFMCEYADETATIVEFLNRWITFSQSIISTLT",no binding (tested: 3 µM),9.8 nM
"21BMT (bivalent) (Fc fusion, Bivalent homodimer; IL-2 T3A D20N E68S Q74P C125S; also called bivalent version of 65BJO) [letters of human IgG1 Fc with L234A L235A D265S (EU numbers) omitted]GGGGSGGGGSPASSSTKKTQLQLEHLLLNLQMILNGINNYKNPKLTRMLTFKFYMPKKATELKHLQCLEEELKPLESVLNLAPSKNFHLRPRDLISNINVIVLELKGSETTFMCEYADETATIVEFLNRWITFSQSIISTLT",no binding (tested: 3 µM),97 nM
"54BGO (bivalent) (Fc fusion, also called bivalent version of 43BGO) [letters of human IgG1 Fc with L234A L235A D265S (EU numbers) omitted]GGGGSGGGGSPASSSTKKTQLQLEHLLLNLQMILNGINNYKNPKLTRMLTFKFYMPKKATELKHLQCLEEELKPLEEALNLAPSKNFHLRPRDLISNINVIVLELKGSETTFMCEYADETATIVEFLNRWITFSQSIISTLT",no binding (tested: 3 µM),1.9 nM
